Results from the supplement of paper PMC10037445.
The full ranking holds about 2,900 compounds; the median of “IRF Lucia reporter activity, fold change vs agonist alone” is about 0.9, and the highest 2% start at about 2.8. The list shows a part of the results.

Key:
RAW-Dual [1] = test: IRF Lucia reporter activity, fold change vs agonist alone; higher = enhanced IRF activity; conditions: cytotoxicity flag (confluency mask): not cytotoxic, agonist: MPLA (TLR4) […]
Method in brief: (§1)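 Cytotoxic wells were those whose IncuCyte confluency was below 70% of agonist controls in both mask sets. The cells were RAW-Dual macrophages at 50,000 cells/well in DMEM on 384-well plates, dosed with 50 nL of library stock by pin tool, stimulated with a PRR agonist 1 h later, and kept at 37 °C, 5% CO2 for 20 hours. IRF and NF-κB reporter activity, as fold change over agonist-alone wells, came from supernatant read by QuantiLuc luminescence and QuantiBlue absorbance, respectively.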

RAW-Dual [2] = test: IRF Lucia reporter activity, fold change vs agonist alone; cytotoxicity flag (confluency mask): not cytotoxic; higher = enhanced IRF activity
Method in brief: as §1

RAW-Dual [3] = test: IRF Lucia reporter activity, fold change vs agonist alone; cytotoxicity flag (confluency mask): cytotoxic (confluency <70% of control); higher = enhanced IRF activity
Method in brief: as §1

[4] = library stock concentration (final ~1000-fold dilution): 10 mM
[5] = agonist: 3'3'-cGAMP (STING) 10 ug/mL
[6] = library stock concentration (final ~1000-fold dilution): 10 mM water

CN1C2CCC1CC(OC(=O)C(CO)c1ccccc1)C2.CN1C2CCC1CC(OC(=O)C(CO)c1ccccc1)C2.O=S(=O)(O)O (stereo not given)
IRF Lucia reporter activity (RAW-Dual [1]; [4]): 1.02

Cn1cc(C2=C(c3cn(C4CCN(Cc5ccccn5)CC4)c4ccccc34)C(=O)NC2=O)c2ccccc21
IRF Lucia reporter activity (RAW-Dual [1]; [4]): 0.847

Cn1cc(C2=C(c3cn(C4CCN(Cc5ccccn5)CC4)c4ccccc34)C(=O)NC2=O)c2ccccc21 (library stock concentration (final ~1000-fold dilution): 10 mM)
IRF Lucia reporter activity (RAW-Dual [2]; [5]): 0.851
IRF Lucia reporter activity (RAW-Dual [2]; agonist: LPS (TLR4) 0.1 ug/mL): 0.525

CNC1CC(N)C(O)C(OC2OC(CO)C(O)C3OC4(OC(C(N)CO)C(O)C(O)C4O)OC23)C1O (stereo not given) (library stock concentration (final ~1000-fold dilution): 10 mM water)
IRF Lucia reporter activity (RAW-Dual [2]; [5]): 1.16
IRF Lucia reporter activity (RAW-Dual [2]; agonist: LPS (TLR4) 0.1 ug/mL): 0.934

CNC1CC(N)C(O)C(OC2OC(CO)C(O)C3OC4(OC(C(N)CO)C(O)C(O)C4O)OC23)C1O (stereo not given)
IRF Lucia reporter activity (RAW-Dual [1]; [6]): 1.39

N#CC(C#N)=Cc1ccc(O)c(O)c1 (library stock concentration (final ~1000-fold dilution): 10 mM)
IRF Lucia reporter activity (RAW-Dual [2]; [5]): 0.674
IRF Lucia reporter activity (RAW-Dual [2]; agonist: LPS (TLR4) 0.1 ug/mL): 1.21

CCN(C)C(=O)Oc1cccc(C(C)N(C)C)c1.O=C(O)C(O)C(O)C(=O)O (stereo not given)
IRF Lucia reporter activity (RAW-Dual [1]; [4]): 0.95

CCN(C)C(=O)Oc1cccc(C(C)N(C)C)c1.O=C(O)C(O)C(O)C(=O)O (stereo not given) (library stock concentration (final ~1000-fold dilution): 10 mM)
IRF Lucia reporter activity (RAW-Dual [2]; [5]): 1.05
IRF Lucia reporter activity (RAW-Dual [2]; agonist: LPS (TLR4) 0.1 ug/mL): 0.966

COc1ccc(C(CN(C)C)C2(O)CCCCC2)cc1 (stereo not given) (library stock concentration (final ~1000-fold dilution): 10 mM)
IRF Lucia reporter activity (RAW-Dual [2]; [5]): 0.983
IRF Lucia reporter activity (RAW-Dual [2]; agonist: LPS (TLR4) 0.1 ug/mL): 0.867

COc1ccc(C(CN(C)C)C2(O)CCCCC2)cc1 (stereo not given)
IRF Lucia reporter activity (RAW-Dual [1]; [4]): 0.973

COC(=O)C(N)CCCNC(=N)N[N+](=O)[O-].Cl (stereo not given)
IRF Lucia reporter activity (RAW-Dual [1]; [6]): 1.46

COC(=O)C(N)CCCNC(=N)N[N+](=O)[O-].Cl (stereo not given) (library stock concentration (final ~1000-fold dilution): 10 mM water)
IRF Lucia reporter activity (RAW-Dual [2]; [5]): 1.19
IRF Lucia reporter activity (RAW-Dual [2]; agonist: LPS (TLR4) 0.1 ug/mL): 0.93

CN(C)C(=O)Oc1cccc([N+](C)(C)C)c1
IRF Lucia reporter activity (RAW-Dual [1]; [6]): 1.38

CN(C)C(=O)Oc1cccc([N+](C)(C)C)c1 (library stock concentration (final ~1000-fold dilution): 10 mM water)
IRF Lucia reporter activity (RAW-Dual [2]; [5]): 1.22
IRF Lucia reporter activity (RAW-Dual [2]; agonist: LPS (TLR4) 0.1 ug/mL): 0.842

CN(C)C(=O)Oc1cccc([N+](C)(C)C)c1.COS(=O)(=O)[O-] (library stock concentration (final ~1000-fold dilution): 10 mM)
IRF Lucia reporter activity (RAW-Dual [2]; [5]): 1.03
IRF Lucia reporter activity (RAW-Dual [2]; agonist: LPS (TLR4) 0.1 ug/mL): 0.936

CN(C)C(=O)Oc1cccc([N+](C)(C)C)c1.COS(=O)(=O)[O-]
IRF Lucia reporter activity (RAW-Dual [1]; [4]): 1.06

COc1ccc(C(=O)O)cc1OC (library stock concentration (final ~1000-fold dilution): 10 mM)
IRF Lucia reporter activity (RAW-Dual [2]; [5]): 0.517
IRF Lucia reporter activity (RAW-Dual [2]; agonist: LPS (TLR4) 0.1 ug/mL): 0.703

CCCCC(C#N)(Cn1cncn1)c1ccc(Cl)cc1 (stereo not given) (library stock concentration (final ~1000-fold dilution): 10 mM)
IRF Lucia reporter activity (RAW-Dual [2]; [5]): 1.25
IRF Lucia reporter activity (RAW-Dual [2]; agonist: LPS (TLR4) 0.1 ug/mL): 1.27

CCCCC(C#N)(Cn1cncn1)c1ccc(Cl)cc1 (stereo not given)
IRF Lucia reporter activity (RAW-Dual [1]; [4]): 1.33

CCc1c(C(=O)C(N)=O)c2c(OCC(=O)O)cccc2n1Cc1ccccc1
IRF Lucia reporter activity (RAW-Dual [1]; [4]): 0.882

CCc1c(C(=O)C(N)=O)c2c(OCC(=O)O)cccc2n1Cc1ccccc1 (library stock concentration (final ~1000-fold dilution): 10 mM)
IRF Lucia reporter activity (RAW-Dual [2]; [5]): 0.95
IRF Lucia reporter activity (RAW-Dual [2]; agonist: LPS (TLR4) 0.1 ug/mL): 1.07

COc1ccc2c(c[n+](C)c3c4cc5c(cc4ccc23)OCO5)c1OC.Cl (library stock concentration (final ~1000-fold dilution): 10 mM)
IRF Lucia reporter activity (RAW-Dual [2]; [5]): 0.0106
IRF Lucia reporter activity (RAW-Dual [2]; agonist: LPS (TLR4) 0.1 ug/mL): 0.0487

COc1ccc2c(c[n+](C)c3c4cc5c(cc4ccc23)OCO5)c1OC.Cl
IRF Lucia reporter activity (RAW-Dual [1]; [4]): 0.0339

CN1C2CC(OC(=O)C(CO)c3ccccc3)CC1C1OC12 (stereo not given) (library stock concentration (final ~1000-fold dilution): 10 mM)
IRF Lucia reporter activity (RAW-Dual [2]; [5]): 1.03
IRF Lucia reporter activity (RAW-Dual [2]; agonist: LPS (TLR4) 0.1 ug/mL): 0.969

CN1Cc2c(ccc3c2OCO3)C2C(O)Cc3cc4c(cc3C21)OCO4 (stereo not given) (library stock concentration (final ~1000-fold dilution): 10 mM)
IRF Lucia reporter activity (RAW-Dual [3]; [5]): 0.124
IRF Lucia reporter activity (RAW-Dual [3]; agonist: LPS (TLR4) 0.1 ug/mL): 1.53

O=c1[nH]c2ccc(Cl)cc2c(NC2CN3CCC2CC3)c1-c1nc2ccccc2[nH]1 (stereo not given)
IRF Lucia reporter activity (RAW-Dual [1]; [4]): 0.829

O=c1[nH]c2ccc(Cl)cc2c(NC2CN3CCC2CC3)c1-c1nc2ccccc2[nH]1 (stereo not given) (library stock concentration (final ~1000-fold dilution): 10 mM)
IRF Lucia reporter activity (RAW-Dual [2]; [5]): 0.738
IRF Lucia reporter activity (RAW-Dual [2]; agonist: LPS (TLR4) 0.1 ug/mL): 0.0187

CC(NC(C)(C)C)C(=O)c1cccc(Cl)c1.Cl (stereo not given)
IRF Lucia reporter activity (RAW-Dual [1]; [4]): 1.08

CC(NC(C)(C)C)C(=O)c1cccc(Cl)c1.Cl (stereo not given) (library stock concentration (final ~1000-fold dilution): 10 mM)
IRF Lucia reporter activity (RAW-Dual [2]; [5]): 0.961
IRF Lucia reporter activity (RAW-Dual [2]; agonist: LPS (TLR4) 0.1 ug/mL): 0.906
